Literature values in US10172829B2 (priority 2014, dated 2019).

Conditions: in vivo; cited from earlier work

O=c1c2ccccc2[se]n1-c1ccccc1 [Ebselen, 2-phenyl-1,2-benzoselenazol-3-one]
outcome of acute ischemic stroke: improved the outcome
